In the supplement of paper PMC4166925:
± gives the standard deviation of the averaged measurements. In all, about 33,000 sequences were measured (“E-score (dimensionless, -0.5 to 0.5)”: median about -0.046, highest 2% from about 0.36 on). The list shows a part of the results.

System: T1, SpTbr T-box DNA-binding domain (GST fusion)
T1 sequence: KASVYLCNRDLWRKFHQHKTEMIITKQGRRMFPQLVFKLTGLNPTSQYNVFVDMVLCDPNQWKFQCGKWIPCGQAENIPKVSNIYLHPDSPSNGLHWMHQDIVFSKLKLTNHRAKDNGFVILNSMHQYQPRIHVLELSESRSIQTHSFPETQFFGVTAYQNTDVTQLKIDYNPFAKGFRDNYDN
Experiment: PBM E-score of 8-mer (E-score (dimensionless, -0.5 to 0.5)); Tbr is Tbrain of the sea star Patiria miniata (Pm) or the sea urchin Strongylocentrotus purpuratus (Sp); higher = stronger binding preference; most listed sequences are background and not binding sites
Settings: the construct has about 5 more residues each side
Method in brief: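 Using the Universal PBM Analysis Suite, every ungapped 8-mer received an enrichment E-score averaged over duplicate arrays. Probe intensities came from double-stranded Universal Agilent oligonucleotide arrays incubated with 200 nM GST-fused Tbr T-box DNA-binding domain in PBS (pH 7.5). That protein was expressed in BL21 E. coli at 20 °C and purified by glutathione affinity chromatography.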

Sequence	PBM E-score of 8-mer
AGTTGATG	-0.00884 ± 0.0088
AAGTACAG	0.0334 ± 0.059
ATCTGAAG	-0.218 ± 0.079
AATCGTTC	-0.189 ± 0.049
AAATTGCT	-0.0891 ± 0.024
CGCAGCAA	0.015 ± 0.039
ACCCACAC	0.355 ± 0.035
GGGCGCTA	0.314 ± 0.014
ATCCCAAG	-0.268 ± 0.033
CGTCCAAG	-0.0976 ± 0.0075
ATCTTATC	-0.105 ± 0.035
TGTCTAAA	-0.101 ± 0.12
AACTCGGG	-0.241 ± 0.094
AGATGTCG	0.172 ± 0.02
ACCCGCGA	0.361 ± 0.011
CATGGTCG	-0.0965 ± 0.042
GGCAACCC	-0.0617 ± 0.1
AGGCGGCA	0.141 ± 0.0094
CCTAAGAC	-0.232 ± 0.025
CAACACTA	0.264 ± 0.025
AACACATT	0.383 ± 0.024
AGTTGTCG	0.293 ± 0.033

Sequence	PBM E-score of 8-mer
GAAATGGA	-0.101 ± 0.0095
ACTATGCT	0.0215 ± 0.058
ACAAGGCG	0.203 ± 0.048
TCGCGCAA	0.265 ± 0.0082
TTAAATAA	-0.022 ± 0.084
CGTGGAGC	-0.149 ± 0.098
CAGGAATG	-0.099 ± 0.023
ATCCGTAA	-0.0265 ± 0.049
GAGCAGAA	-0.0216 ± 0.059
CGCGCCTA	0.356 ± 0.037
GGATAGGA	-0.248 ± 0.01
ACTTGGAT	-0.0509 ± 0.046
TGAGTAAA	0.164 ± 0.064
AAAAAAAT	0.0431 ± 0.054
TGGTAACA	0.2916 ± 0.0015
GAAAACGA	-0.168 ± 0.017
CTCAGAGC	0.123 ± 0.018
AAATTACC	0.00666 ± 0.022
AGAGTAGC	-0.0268 ± 0.064
GAGAAAAC	0.0173 ± 0.018
AATATAGT	0.016 ± 0.066
ATATGAAA	-0.17 ± 0.12

Sequence	PBM E-score of 8-mer
ATAATTGG	-0.0411 ± 0.041
TATCAGAA	-0.0686 ± 0.062
CTGCAGTC	-0.0913 ± 0.086
TCCGACCA	-0.244 ± 0.015
ATAACCGG	-0.036 ± 0.022
AGACTATG	-0.23 ± 0.061
ATGAGTTC	-0.106 ± 0.042
GTATTATA	-0.284 ± 0.011
CCTCTCAC	0.361 ± 0.028
CCCAAGTC	-0.163 ± 0.049
CACAGAAA	-0.0162 ± 0.003
GACTATGA	-0.0547 ± 0.034
CGGCATAA	-0.302 ± 0.015
CTCAGGGC	-0.123 ± 0.038
CTGCCTCC	-0.155 ± 0.041
TTAACCAA	-0.059 ± 0.0019
GAAACGCA	-0.112 ± 0.0069
GTAGGAAC	0.073 ± 0.033
GAATACCA	-0.0747 ± 0.052
AAAGGGGC	-0.214 ± 0.017
AAGCCGGG	-0.254 ± 0.053
TCCCTACA	-0.17 ± 0.0073

Sequence	PBM E-score of 8-mer
CGTTGTGA	0.162 ± 0.028
CTTCCGCA	0.102 ± 0.023
ACATATCA	0.216 ± 0.043
CTGGAAAG	-0.214 ± 0.068
CGAGTGGC	0.0734 ± 0.095
CTATGGAA	-0.2951 ± 0.001
ACCTTGGC	0.249 ± 0.0077
CAAACATG	-0.0413 ± 0.026
CTTGGTTC	-0.108 ± 0.029
ACGTCGTC	0.0505 ± 0.041
CACAATAC	0.235 ± 0.0092
AGCCAAAA	-0.265 ± 0.044
AGTTCGTA	-0.053 ± 0.0053
TGCGTCCA	-0.106 ± 0.061
CCTGCACA	0.08094 ± 0.00011
ATGCATAA	-0.158 ± 0.063
CCCGGTAC	-0.156 ± 0.041
CTTGGTGC	0.0988 ± 0.053
ATGCATCC	-0.221 ± 0.065
GAATCCTA	-0.182 ± 0.028
TCTCTTCA	-0.106 ± 0.055
AAAGCCTA	-0.353 ± 0.02

Sequence	PBM E-score of 8-mer
CTCCCCAG	0.00668 ± 0.043
ATGTGTTA	0.444 ± 0.015
TAGGTGAA	0.174 ± 0.059
CTAGGGCA	-0.247 ± 0.024
AGTCTCGC	0.2447 ± 0.0024
AACGGCAA	-0.0164 ± 0.062
GCGACCAA	0.135 ± 0.11
CGCGTAAA	0.132 ± 0.053
CATTCATA	-0.0231 ± 0.071
ACCCTAAG	-0.0957 ± 0.054
GTAGTCCA	-0.241 ± 0.03
CTCCTCAC	0.262 ± 0.028
GCGCGGCA	0.156 ± 0.011
TACCGTAA	-0.153 ± 0.057
GCTATCGA	0.123 ± 0.017
AAAGGGTC	-0.256 ± 0.025
AGGGCACG	-0.0654 ± 0.016
AGTCCAAT	-0.0929 ± 0.015
TCAACACA	0.27 ± 0.006
CTCAATAA	-0.137 ± 0.037
CCTCGTGC	-0.0561 ± 0.024
CCTCGGAA	-0.0996 ± 0.043
